Results published in PMC4336329 (PLoS ONE, 2015).
The whole screen tested about 310,000 compounds, of which about 2,200 (0.71%) showed an effect of 50% or more. Effects have a minus sign here. This is one part of the list.

The compounds below were run against human ether-à-go-go-related gene (hERG) potassium channel (human, UniProt Q12809) (assay: primary screen, population patch clamp on CHO cells stably expressing hERG).
human ether-à-go-go-related gene (hERG) potassium channel, sequence (Q12809 whole entry, looked up): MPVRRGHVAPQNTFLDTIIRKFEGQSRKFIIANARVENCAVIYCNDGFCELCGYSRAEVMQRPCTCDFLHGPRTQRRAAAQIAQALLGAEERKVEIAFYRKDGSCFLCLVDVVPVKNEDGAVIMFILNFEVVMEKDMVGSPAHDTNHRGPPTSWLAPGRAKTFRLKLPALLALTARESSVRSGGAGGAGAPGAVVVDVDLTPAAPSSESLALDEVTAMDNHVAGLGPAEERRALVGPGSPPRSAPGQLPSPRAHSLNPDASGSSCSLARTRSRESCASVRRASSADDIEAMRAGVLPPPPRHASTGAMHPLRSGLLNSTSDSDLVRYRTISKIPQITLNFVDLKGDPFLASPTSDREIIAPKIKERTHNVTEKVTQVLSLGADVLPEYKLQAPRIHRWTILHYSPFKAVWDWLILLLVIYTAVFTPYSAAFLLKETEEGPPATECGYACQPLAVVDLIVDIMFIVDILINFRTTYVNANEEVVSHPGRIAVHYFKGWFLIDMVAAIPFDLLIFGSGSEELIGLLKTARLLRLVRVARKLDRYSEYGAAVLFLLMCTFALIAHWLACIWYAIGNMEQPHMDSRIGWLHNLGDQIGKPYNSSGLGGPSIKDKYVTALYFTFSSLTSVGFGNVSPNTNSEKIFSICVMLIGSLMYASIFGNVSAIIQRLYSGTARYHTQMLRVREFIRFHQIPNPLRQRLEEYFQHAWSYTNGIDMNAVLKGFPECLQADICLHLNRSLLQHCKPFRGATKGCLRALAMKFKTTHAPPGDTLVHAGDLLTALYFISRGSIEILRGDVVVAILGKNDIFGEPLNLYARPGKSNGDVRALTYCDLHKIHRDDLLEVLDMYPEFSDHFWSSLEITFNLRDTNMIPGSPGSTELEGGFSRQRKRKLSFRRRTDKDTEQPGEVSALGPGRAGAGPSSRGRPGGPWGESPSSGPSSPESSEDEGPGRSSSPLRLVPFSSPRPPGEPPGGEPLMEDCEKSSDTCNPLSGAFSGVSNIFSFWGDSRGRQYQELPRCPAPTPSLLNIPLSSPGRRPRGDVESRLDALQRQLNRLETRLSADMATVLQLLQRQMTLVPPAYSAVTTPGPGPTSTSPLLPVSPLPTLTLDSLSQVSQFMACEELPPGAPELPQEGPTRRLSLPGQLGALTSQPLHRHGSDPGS

SMILES | hERG current change (%, negative = inhibition) at 1uM
Cc1ccc(NC(=O)CSCC(=O)N(C)CC(=O)Nc2cccc3ccccc23)cc1 | -1.2%
CCN(Cc1ccc(OC)c(F)c1)C(C)C(=O)Nc1ccc(S(=O)(=O)N2CCCC2)cc1 (centres unmarked) | 1.92%
Cc1ccc(SCC(=O)NCCCc2ccccc2)cc1 | 6.73%
CCCOc1ccc(C(=O)Nc2ccc(S(=O)(=O)Nc3cc(C)nc(C)n3)cc2)cc1 | 11.5%
NC(=O)SC/C(=N\S(=O)(=O)c1ccccc1)Nc1ccccc1 | 9.22%
CC(C)C(=O)Nc1ccc2oc(-c3cc(F)c(F)cc3Cl)nc2c1 | 4.16%
c1cc2nnnn2nc1N1CCCCCC1 | 2.99%
C#CC[N+]1(CC#Cc2ccc(C#CC[N+]3(CC#C)CCOCC3)cc2)CCOCC1.[Br-] | 8.21%
CCOc1ccc(Cn2c3ccc(OC)cc3c3nc4ccccc4nc32)cc1OC | 12.3%
Cc1ccc(NC(=O)c2cnn(-c3ccccc3)c2NC(=O)c2ccco2)cc1C | 14.6%
C#CCOCCOCCOCCNc1nc(N2CCN(C(=O)[C@H](CCCCN)n3cc([C@@H](N)C(C)CC)nn3)CC2)nc(N2CCN(C(=O)[C@H](Cc3cc4ccccc4[nH]3)n3cc([C@@H](N)CC(C)C)nn3)CC2)n1.Cl (some centres unmarked) | 14.1%
COc1cc(C=O)ccc1Oc1nnnn1-c1ccc(C(N)=O)cc1 | -6.2%
COc1ccccc1OCC(=O)NNC(=O)Nc1ccccc1 | 15.3%
CC1CCC(NC(=O)CN2C(=O)c3cccnc3Oc3ccc(Cl)cc32)CC1 (centres unmarked) | 5.38%
Cn1ncc2c(Nc3ccc(O)cc3)nc(Cl)nc21 | 3.7%
COc1ccccc1CNC(=O)C1CCN(S(=O)(=O)c2ccc3c(c2)CC(C)N3C(C)=O)CC1 (centres unmarked) | 21.4%
COc1cccc(NC(=O)N2CCN(c3cccc(C)c3C)CC2)c1 | 2.4%
CC(=O)Nc1cccc(NC(=O)c2ccc3c(c2)CCN3S(=O)(=O)c2ccccc2)c1 | 9.95%
CC(=O)CC(C)=NCCN=C(C)CC(C)=O | -1.16%

SMILES | hERG current change (%, negative = inhibition) at 1uM
COc1cccc(C(=O)N2CCCC(c3nc(-c4cccs4)no3)C2)c1 (centres unmarked) | 0.448%
CN(C)c1ccc(NS(=O)(=O)c2ccc(-c3csnn3)cc2)cc1 | 15.9%
O=C(COc1ccc2c3c(c(=O)oc2c1)CCCC3)NCC(O)c1ccccc1 (centres unmarked) | 8.88%
COc1cc(NC(=O)C(C)C)ccc1NC(=O)c1ccco1 | 11%
COc1cc(/C=C2\SC(=S)N(CCC(=O)NC3CCCC3)C2=O)cc(OC)c1OC | 4.62%
CC(/C=N/NC(=O)c1cc(C2CC2)[nH]n1)=C\c1ccccc1 | 12.6%
COC(=O)c1cc2sccc2n1CC(=O)Nc1cc(OC)cc(OC)c1 | 17.5%
Cc1ccc2[nH]c(=O)c(C(c3nnnn3CC3CCCO3)N3CCOCC3)cc2c1 (centres unmarked) | 10.6%
CCOc1ccc(/C=N/NC(=O)c2c(-c3ccccc3)noc2C)cc1 | 1.65%
CC(C(=O)NNS(=O)(=O)c1cccc(C(F)(F)F)c1)n1nnc(N2CCOCC2)n1 (centres unmarked) | -4.41%
Cc1cc(C)n(-c2ccc(Cl)c(Cl)c2)n1 | 8.93%
Cc1occc1-c1nnc(SCC(=O)c2ccc(F)cc2)n1Cc1ccco1 | -7.47%
C=CCNc1nc(Nc2ccc(OC)cc2OC)nc(OCC)n1 | 3.28%
CC(=O)Nc1cccc(NC(=S)Nc2cccc(Cl)c2Cl)c1 | 12.2%
O=C(NCCc1csc(-c2ccc(Cl)cc2)n1)c1ccco1 | 4.34%
CNC(=O)c1c(N)sc2c1CCCCC2 | 2.02%
O=C(Nc1cccc(F)c1)NC1CCCCCCC1 | 16.3%
CCS(=O)(=O)c1ccc2c(c1)N(S(=O)(=O)c1ccccc1)CC(C(=O)O)O2 (centres unmarked) | 1.48%
COc1cc(O)sc1C=Nc1ccc(Cl)cc1 | 6.9%

SMILES | hERG current change (%, negative = inhibition) at 1uM
COc1ccc(NC(=O)CSCC(=O)NCc2ccco2)cc1 | -0.79%
CCNc1nc2c(c(=O)[nH]c(=O)n2C)n1CCCc1ccccc1 | 11.5%
CCOc1ccccc1NC(=O)CN1C(=O)COc2ccccc21 | 8.85%
CCOc1ccc(/C=N/NC(=O)c2nnn(-c3nonc3N)c2CN(C)C2CCCCC2)cc1 | 1.52%
Cc1cc(/C=N/NC(N)=S)c(C)n1-c1cccc(Cl)c1 | -1.59%
CC(NC(=O)c1ccccc1NC(=O)CSc1nnnn1C)c1ccccc1 (centres unmarked) | 3.34%
COc1ccc(OC)c(-n2c(C)cc(C=O)c2C)c1 | 14%
Cc1ccc(C)c(-n2c(SCC(=O)N3CCC(C(=O)O)CC3)nnc2-c2cccc(Cl)c2)c1 | 22.2%
Cc1c(CN2CCN(CC(C)(C)C)C(CCO)C2)[nH]c2ccccc12 (centres unmarked) | 16.1%
N#Cc1ccc(-c2csc(NC(=O)/C=C/c3cccs3)n2)cc1 | 15%
CN(c1ccccc1)S(=O)(=O)c1cccc(C(=O)NCCc2ccc(O)c(O)c2)c1 | -4.6%
Cc1ccc(NC(=O)c2nn(C34CC5CC(CC(C5)C3)C4)cc2[N+](=O)[O-])cc1 | -2.47%
CCOc1ccccc1C(=O)NC1CCN(Cc2ccccc2)CC1 | -23.2%
COC(=O)c1cc(C(=O)NC(C)C2CC3CCC2C3)cc([N+](=O)[O-])c1 (centres unmarked) | 8.06%
Cc1nc(-c2ccc(NC(=O)C3CC3)cc2)cs1 | 11.2%
O=C(Nc1nccs1)c1cc(Cl)nc2ccccc12 | 12.7%
O=c1nc(-c2ccccc2)nc(-c2ccccc2)[nH]1 | 7.59%
O=C1CC(c2ccccc2Br)c2cc3c(cc2N1)CCC3 (centres unmarked) | 9.66%
